Results reported in the supplement of paper PMC3334620.
In all, about 33,000 sequences were measured (“E-score (-0.5 to 0.5)”: median about -0.011, highest 2% from about 0.28 on). Some of the results follow.

Biological target: T1, Gcr1 (UniProt P07261)
T1 sequence: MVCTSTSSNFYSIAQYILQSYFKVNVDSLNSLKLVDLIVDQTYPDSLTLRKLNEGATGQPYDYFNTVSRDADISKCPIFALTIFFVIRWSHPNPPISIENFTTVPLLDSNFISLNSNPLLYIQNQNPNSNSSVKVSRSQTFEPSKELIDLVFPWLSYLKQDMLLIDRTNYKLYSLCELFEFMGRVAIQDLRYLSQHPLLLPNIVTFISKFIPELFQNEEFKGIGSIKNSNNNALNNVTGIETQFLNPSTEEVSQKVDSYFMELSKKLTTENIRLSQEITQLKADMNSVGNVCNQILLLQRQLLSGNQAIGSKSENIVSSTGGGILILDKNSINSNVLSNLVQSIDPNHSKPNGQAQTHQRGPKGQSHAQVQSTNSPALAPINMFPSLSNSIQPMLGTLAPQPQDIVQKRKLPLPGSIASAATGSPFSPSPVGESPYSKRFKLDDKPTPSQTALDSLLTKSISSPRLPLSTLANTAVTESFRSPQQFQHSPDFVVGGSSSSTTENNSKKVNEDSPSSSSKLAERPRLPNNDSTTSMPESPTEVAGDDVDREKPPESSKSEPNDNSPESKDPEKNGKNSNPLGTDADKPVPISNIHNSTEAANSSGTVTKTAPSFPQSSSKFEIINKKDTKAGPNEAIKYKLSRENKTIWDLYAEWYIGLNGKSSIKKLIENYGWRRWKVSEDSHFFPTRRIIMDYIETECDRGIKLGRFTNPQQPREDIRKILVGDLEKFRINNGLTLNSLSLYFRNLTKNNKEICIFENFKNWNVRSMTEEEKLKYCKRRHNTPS
Assay: PBM E-score (8-mer binding enrichment) (E-score (-0.5 to 0.5)); higher = stronger / more preferred TF binding; most listed sequences are background and not binding sites
Conditions: protein concentration: 100 nM; construct: GST-full length
How it was run: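 E-scores (a modified Wilcoxon-Mann-Whitney statistic) were assigned by the Universal PBM Analysis Suite to every ungapped eight-base word pooled with its reverse complement. The input came from universal all-10-mer Agilent arrays made double-stranded by primer extension and probed with GST-tagged yeast transcription factors at about 100-200 nM. Fluorescent anti-GST detected bound protein, and masliner normalised the scans.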

Sequence | PBM E-score
ACCTACAA | 0.142
ATGGTAAG | -0.102
GAAATTCC | 0.127
CTCGACTC | -0.191
GCGCTCAA | -0.0767
CACCCTAA | 0.055
GTCTGTAA | -0.0579
TCACTGGA | 0.219
GAACGATC | 0.0394
CCTCCCGA | 0.0174
CTACCCGC | 0.104
CGCCTCCA | 0.134
ATCACTGC | -0.0935
ACAGTTCA | -0.0755
CATTCTGA | -0.00147
GGATGGAC | 0.0522
CTTAGGGC | 0.146
TCCAACGA | 0.00498
ACCGAAAC | 0.0484
CTAGATTA | -0.0428
CAGTACGA | -0.144
ATGGTAGG | -0.13
GCGCGAAC | 0.0242
CAAAGTCG | -0.154
AGTGGTAG | 0.318

Sequence | PBM E-score
ATTGTGCC | -0.28
CGTTTTAC | -0.101
AGTAGGGC | 0.0894
CCACCAGG | -0.0484
ACCCTTTG | -0.225
TAGTTCGA | 0.0984
CTACGCCC | -0.00525
CTATAAAC | 0.0777
AACGGGAT | 0.202
AGGGCATA | -0.118
CGTGTTAC | -0.148
GTGTACAC | -0.117
TACAGGCA | 0.195
GTCCTAAA | 0.21
ACCGGGGG | -0.183
ACGTCGCC | 0.11
ATTAAATC | 0.203
GTATAATA | 0.216
ATTGATTA | 0.198
GTGAGTAA | -0.113
CGATAAAG | -0.0204
CTCCGTAC | -0.111
AGTCATGA | -0.128
GCGACTTA | 0.165
ACACGCTA | -0.198

Sequence | PBM E-score
AATAATAC | 0.146
CCTGTCTC | 0.124
AAGTGCAC | -0.107
ACGCCGGG | -0.0339
AGATCATG | -0.118
ACCCAGCT | -0.0549
AGGTCACC | 0.0121
CAATGTAG | -0.171
GACGTAGA | -0.0244
AGCCAGAG | 0.124
GCCAATCA | 0.0668
GAGGCAGC | 0.147
GAGTTGGA | 0.0545
GACATCCA | 0.156
GTAGGTCA | -0.348
CGGTGGTA | -0.142
ACACTCGC | 0.0484
ACAGAGAC | 0.0515
CGCTAAGC | 0.0421
AGGACTGA | -0.184
AGTCATTA | -0.157
AAACCACG | -0.157
CCCGAGAC | 0.0132
GAAATTGC | 0.153
GGTTACAC | -0.0711

Sequence | PBM E-score
CATATCGC | -0.0927
GGGGGAAC | -0.0945
ACCTGCAC | 0.0483
ATCAGATG | 0.0846
GAACCCAA | 0.167
CCTCCCTC | -0.0542
GCAACTCC | -0.168
ATTTGACG | 0.0163
GTATGGGA | 0.0945
AATGCGGC | 0.0925
CGTGATAC | -0.0738
GGATCTCA | -0.0912
TGCACCCA | 0.151
CAACGTGG | -0.0818
CCAACCCC | -0.00845
ACCATTAC | 0.127
AGGTAGAC | -0.0661
ATAGGGTC | -0.162
GACTTCTC | 0.0467
CATTGTCA | 0.0155
CGAAAGCA | -0.149
GTGTACCA | -0.195
CCAGGACC | -0.184
CTCGCGTA | -0.0874
GATGTGGC | 0.0493

Sequence | PBM E-score
TATATCGA | -0.0192
GAGCGGAC | 0.0999
ATTCACTA | 0.0838
AACCTCCG | -0.2
TGAAACAA | 0.0585
TACGCAGA | 0.0408
ATCTGGGG | 0.0657
TAGTATAA | -0.0308
GCGTCCCA | 0.282
AAAGCCCT | -0.146
CGTAAGAC | -0.135
CTAACGAC | -0.0103
GGTTTAGA | -0.0707
AAGATCCG | 0.0638
ACTGTGCC | -0.157
CCCTGAGA | 0.00198
CCAACGTA | -0.0537
ATCCATGC | -0.236
GGACAACC | -0.0755
CGAGGCCC | -0.0839
ATACGGCA | 0.0373
ACGTGTAT | 0.0211
AACACTAG | -0.0185
ATATCAAT | 0.0526
ACATCTGA | -0.221

Sequence | PBM E-score
GCGATACA | 0.108
ATGGCCCC | 0.0919
CGAAGTAA | -0.0367
CTAGATAA | 0.114
ATCCTCTG | -0.0428
AATTGCAT | -0.0597
CCGCGCTA | -0.0123
GTTCCATA | 0.174
CAGCAAGG | -0.068
GAGGAAGA | 0.171
ACAAATGT | -0.0607
AGGGATGA | -0.261
CAGTGGCA | 0.155
CAGAATTA | 0.191
ATGAGTTA | -0.164
AAATTTCC | -0.0261
AGTAGGAT | 0.0978
AGCTGCAT | -0.077
CACCTACG | -0.0805
ATACTAGA | 0.0992
CGCGGGTA | -0.0289
AACGACTG | -0.128
TTCCAAAA | 0.273
ACGTCCCC | -0.0668
AGTGTGAC | -0.234

Sequence | PBM E-score
ATAGTCGG | 0.134
GGCGCGGA | -0.0104
CAGTAGGG | 0.203
ACAGTAGA | 0.129
AGGGTACG | -0.126
ATCCTAGA | 0.125
CAGGCTTC | 0.213
AATTAGTC | 0.0909
AATCCCCT | -0.0465
GCCCAACA | -0.0925
CAGTACAG | -0.0832
AGCTGATG | -0.153
CCGGACTC | -0.0713
CAGTGCGA | 0.0683
CCGAAGCC | 0.136
GTCTCAAC | -0.0511
AGTCCGAT | -0.112
AATCACAA | 0.0103
AAGGGCAT | -0.101
ATTGAGAG | -0.0154
AGCGGTAC | -0.126
AAAGGATA | 0.152
